What is called % Inhibition is the drop in the measured response relative to a control, in per cent.

About 540 (0.36%) of roughly 150,000 compounds showed an effect of 50% or more. Some of the results follow.

The test deals with Plasmodium falciparum. Briefly: Primary screen in NF54 nanoGlo assay, in single point, at 2uM, 72h; a lower Z score goes with more inhibition. In kind it is functional, Erythrocyte. The settings on record: timepoint 72 hour.
As to `Cc1nc(C[C@H]2CCCN(C(=O)NCc3ccc(F)c(C)c3)C2)no1`, the “% Inhibition” value was -9% and the Z score is recorded as 1.03.
On to `O=S(=O)(c1cccc2c1OCCO2)N1CCCO1`, for which the “% Inhibition” value was -9% and the Z score amounted to 1.54.
On to `Cc1cc(NC(=O)c2ccc3c(c2)OCO3)cc(-c2nc3ncccc3o2)c1O`, for which the “% Inhibition” value is -1% and the Z score was 0.16.
On to `Cc1cc(C(=O)N2CCCC2C2CCCO2)ccc1Cl` (stereo not given), for which the “% Inhibition” value is listed as -2% and the Z score stood at 0.18.
Consider `CC(C)c1nnc(CN2CCOC3(CCCC3)C2)o1`, for which the “% Inhibition” value is given as -5% and the Z score was 0.52.
Consider `Cc1nonc1CN(C)C(=O)c1cc(NC(=O)c2ccccc2)cc2ncn(C3CCCC3)c12`, for which the “% Inhibition” value is -13% and the Z score amounted to 2.43.
Consider `O=C(Nc1ccc(C2OC(=O)N(Cc3cccc(F)c3)C2C(=O)NCc2ccc(F)cc2)cc1)c1cccs1` (stereo not given), for which the “% Inhibition” value is given as -12% and the Z score is recorded as 1.97.
Regarding `Cc1cc(CN(C)C(=O)c2ccoc2C)no1`, the “% Inhibition” value was -12% and the Z score is 2.27.
Turning to `OCCC#Cc1ccc(-c2nccn2-c2cnc3ccccc3c2)cc1`, the “% Inhibition” value was determined as 0% and the Z score is 0.08.
On to `Nc1ncnc(N2CCC[C@H](n3ccc(C(F)(F)F)n3)C2)c1Cl`, for which the “% Inhibition” value was -1% and the Z score came out at 0.18.
For `O=S(=O)(Nc1cnn(Cc2ccc(Cl)cc2Cl)c1)c1ccc2ccccc2c1`, in that order: -9% and 1.1.
The like results for `CCC(=O)NCc1nccc(N(C)C)n1` were, in that order, -2% and 0.36.
Turning to `Cc1noc(C2CCN(C(=O)c3cc4c(s3)CCCCC4)CC2)n1`, the “% Inhibition” value came to 4% and the Z score is -0.56.
For `CN(C)C(=O)OCCN1CCC[C@H]1c1nc(-c2ccccc2)n[nH]1`, in that order: -16% and 1.67.
For the compound `COCC(=O)N[C@@H]1CN(C(=O)Cc2ccsc2)C[C@H]1c1nccn1C`, the “% Inhibition” value was -3% and the Z score turned out to be 0.56.
Turning to `CC(C)(C)CCC1(O)CC(C(=O)NC[C@H]2CCCOC2)C1` (stereo not given in full), the “% Inhibition” value is on record as -5% and the Z score was found to be 0.56.
In the case of `Cc1nc(C)c(C(=O)N2CC(Nc3ncccn3)C2)s1`, the “% Inhibition” value was -14% and the Z score was 1.65.
For `NC(=O)c1csc(C(=O)NCC[C@H]2CCc3ccccc32)c1`, in that order: -6% and 1.02.
For `O=C(CCN1CCN(c2ccccc2)CC1)NC1CC1`, in that order: 10% and -1.53.
On to `O=C(Nc1cccnc1)NC(C1CC1)C1CC1`, for which the “% Inhibition” value is listed as -1% and the Z score worked out at 0.2.
For `O=c1c2cc3c(=O)n(-c4ccncc4)c(=O)c3cc2c(=O)n1-c1ccncc1`, in that order: -4% and 0.52.
As for `O=S(=O)(NCCn1ccn2nccc12)c1ccccc1`, the “% Inhibition” value was -19% and the Z score is listed as 2.4.
For `CON(C)C[C@H](O)Cn1cc(NC(=O)Nc2cc(C)on2)cn1`, in that order: -5% and 0.49.
Take `O=c1ccc(C(F)(F)F)cn1Cc1cncc(Br)c1`: the “% Inhibition” value was 0% and the Z score came to 0.05.
For `Clc1ccc(Cl)c(-c2ccc(CNn3cnnc3)o2)c1`, in that order: 43% and -6.16.
`Cc1cc(-c2csc(NC(=O)c3ccccn3)n2)c(C)o1`: the “% Inhibition” value worked out at 2% and the Z score is given as -0.27.
The like results for `O=C(Cc1ccc2c(c1)OCO2)N1CCC(=C2CC2)CC1` were, in that order, 8% and -0.89.
For `CCOC(=O)c1cc(C)nn1C1CCN(C(=O)COCc2ccccc2)CC1`, in that order: -7% and 1.04.
With `COc1cccc(OC)c1C(=O)Nc1c(C(=O)N2CCCCCC2)oc2ccccc12`, the “% Inhibition” value is given as -7% and the Z score was 0.68.
For `COc1ccc(N(Cc2ccccc2)S(=O)(=O)c2cccc(C(=O)N(C)Cc3ccco3)c2)cc1`, in that order: -18% and 3.38.
The like results for `C[C@@H](CNC(=O)Nc1nn(C)cc1C#N)c1nccs1` were, in that order, 4% and -0.42.
Turning to `COC(=O)c1cc(Cl)cc(C)c1NC(=O)c1cc2n(n1)CCCO2`, the “% Inhibition” value is given as -11% and the Z score is 2.17.
The like results for `O=C(Nc1ccccc1F)[C@@H]1CCc2ccccc2N1` were, in that order, -7% and 1.12.
Turning to `CCCN1CCN(C(=O)[C@@H]2CCCn3c(-c4ccccc4)cnc32)CC1`, the “% Inhibition” value is listed as -4% and the Z score came to 0.58.
The like results for `CCN(C)[C@@H](C)C(=O)N(C)Cc1cc(C)cc(C)n1` were, in that order, -12% and 1.59.
For `COc1cc2c(N(C)C(=O)c3cccc(OC)c3OC)cccc2cc1OC(C)C`, in that order: -17% and 2.03.
Regarding `CCC(=O)Nc1nnc(-c2cc3cccc(OC)c3o2)o1`, the “% Inhibition” value is -7% and the Z score came out at 1.25.
For `Fc1ccc(CN2CCc3nc(N4CCOCC4)nc(Oc4ccc(F)cc4F)c3C2)cc1`, in that order: -6% and 0.71.
With `CC(C)CCN[C@@H](CC(=O)Nc1cccc(Cl)c1Cl)C(=O)O`, the “% Inhibition” value is -6% and the Z score was found to be 1.04.
Regarding `Cn1cnc2c(NCC3(n4cccn4)CC3)ncnc21`, the “% Inhibition” value is listed as -1% and the Z score stood at 0.16.
As to `COc1cccc(N2CCN(S(=O)(=O)c3ccc4c(c3)CCN4C(=O)NC3CCCC3)CC2)c1`, the “% Inhibition” value is -3% and the Z score was determined as 0.37.
As to `COC[C@H]1CN(c2ncnc3c2ncn3-c2ccccc2)CCO1`, the “% Inhibition” value is given as -5% and the Z score came to 0.51.
For `Nc1nc(CCc2nc3c([nH]2)C[C@H](c2ccc(F)cc2)CNC3=O)cs1`, in that order: 0% and -0.01.
Consider `Cc1nc(C(C)NC(=O)N2CCCC(c3ccc(F)c(F)c3)C2)cs1` (stereo not given), for which the “% Inhibition” value is -3% and the Z score turned out to be 0.49.
For `CO[C@H]1CN(C(=O)NCCN2CCOCC2(C)C)C[C@H]1OC`, in that order: -6% and 0.91.
With `O=C(Nc1cccc2c1COCC2)N1CCC2(C=Cc3ccccc3O2)CC1`, the “% Inhibition” value is reported as -3% and the Z score worked out at 0.47.
Turning to `O=C(NCC1(C(=O)O)CCOCC1)c1cc(C2CC2)nc2ccccc12`, the “% Inhibition” value is recorded as -5% and the Z score came to 0.62.
In the case of `CCNc1ccnc(NCc2nc(-c3cccc(F)c3)c(-c3ccccn3)[nH]2)n1`, the “% Inhibition” value was found to be 38% and the Z score is given as -2.07.
For `CNS(=O)(=O)c1cccc(NCc2cc(COC)cs2)c1`, in that order: 3% and -0.42.
The like results for `Cc1onc(-c2ccccn2)c1C(=O)N1CC[C@H](c2ccccn2)C1` were, in that order, -9% and 1.07.
The like results for `CN(CC1CC1)C(=O)c1c(NC(=O)c2cccnc2)sc2c1CCCC2` were, in that order, -2% and 0.31.
Regarding `CC(C)[C@H]1CN(C(=O)c2nc(C(F)(F)F)n3c2CCCC3)CCN1`, the “% Inhibition” value is recorded as -15% and the Z score was found to be 1.9.
For `Cc1nnc(CN(C)C(=O)NCCC2CCCCCC2)o1`, in that order: -2% and 0.33.
The like results for `Cc1ccc([C@@H](O)CNCc2cccc3nccn23)cc1` were, in that order, 3% and -0.6.
The like results for `O=C(O)c1cc(O)cc(-c2cc(NCc3ccccn3)nc3[nH]ccc23)c1` were, in that order, -8% and 1.55.

Source of the values: ChEMBL document CHEMBL4888484, “Replenishing the malaria drug discovery pipeline: Screening and hit evaluation of the MMV Hit Generation Library 1 (HGL1) against asexual blood stage Plasmodium falciparum ,using a nano luciferase reporter read-out” (2022).
